{"source": "PubChem BioAssay AID686978", "about": "(National Center for Advancing Translational Sciences (NCATS), 2013)", "note": "Among all 420,000 compounds or so, about 64,000 (15%) were called active. The inconclusive results got no clear call from the source; some entries with a clear call stand among them for comparison. Calls follow the shape of the dose curve; as a rule, active = well fitted inhibition curve with a large enough effect; inconclusive = small, poorly fitted or top-dose-only effect; inactive = flat fitted curve, though single readings scatter. Potencies of inconclusive entries are left out as doubtful fits. % is scaled to controls: 0 for no effect and ±100 for the full control effect; potency is read from the fitted curve at half-maximal effect; tags tell the direction and shape of the fitted curve."}
{"test": "qHTS for Inhibitors of human tyrosyl-DNA phosphodiesterase 1 (TDP1): qHTS in cells in absence of CPT; also: nearly all actives have a fitted effect of over 55% in size", "details": "DT40 Tdp1-/- hTDP1 cells, no CPT, ATP luminescence, 48 h; activity change, negative = growth inhibition: at 46.2 µM (top of the series) unless noted", "procedure,_shortened": "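Luminescent ATP content (CellTiter-Glo) served as the growth readout. Knockout chicken DT40 cells expressing human TDP1 were exposed to compounds without camptothecin for a minimum 48 hr at 37 °C.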"}
{"smiles": "CN(Cc1ccon1)C(=O)c1ccc2nc(Cc3cccc(Cl)c3)oc2c1", "Potency": "inconclusive [inhibitor, single point]"}
{"smiles": "COc1ccc(-n2ncc3c(NCCC4=CCCCC4)ncnc32)cc1", "Potency": "inconclusive [inhibitor, single point]"}
{"smiles": "O=C(c1ccc([N+](=O)[O-])s1)N1CCN(c2ccc(C(F)(F)F)cn2)CC1", "Potency": "active: 16.4 µM"}
{"smiles": "CCN(CC)S(=O)(=O)c1ccc(N2CCOCC2)c(NC(=O)c2ccc(=O)n(C)n2)c1", "activity change, negative = growth inhibition": "inactive: 2.16%"}
{"smiles": "Cc1ccc(N2CC(C(=O)Nc3ccc(Br)cc3)CC2=O)cc1", "note": "(stereo not given)", "activity change, negative = growth inhibition": "inactive: -27.7%"}
{"smiles": "CCC1=Nc2cc(C(=O)NC3CCCC3)ccc2Sc2ccc(Br)cc21", "Potency": "active: 0.731 µM"}
{"smiles": "COc1ccccc1C#Cc1cnc2c(c1)C(=O)N([C@H](C)CO)C[C@H](C)[C@@H](CN(C)S(=O)(=O)c1cn(C)cn1)O2", "Potency": "inconclusive [inhibitor, single point]"}
{"smiles": "CCCCN1C(=O)C(=O)N(CC(=O)Nc2ccccc2C(=O)OCC)C1=O", "Potency": "inconclusive [inhibitor, single point]"}
{"smiles": "CC1(C)CC(NS(=O)(=O)c2ccc(Cl)cc2)CC(C)(C)N1", "activity change, negative = growth inhibition": "inactive: -21.8%"}
{"smiles": "CC(=O)c1ccc(N=Cc2c(O)n(-c3cc(Cl)ccc3N3CCOCC3)c(=O)c3ccccc23)cc1", "Potency": "inconclusive [inhibitor, full curve, poor fit]"}
{"smiles": "Cc1cnc(-n2ncc(C(=O)N(C)CCc3ccccn3)c2-c2cccs2)nc1-c1ccc(F)cc1", "Potency": "active: 11.6 µM"}
{"smiles": "CC(C)OC(=O)c1c(NC(=O)C2CC=CCC2C(=O)O)sc2c1CCCCC2", "note": "(stereo not given)", "activity change, negative = growth inhibition": "inactive: -22.6%"}
{"smiles": "CC(C)OCCCN1CC(=O)N2C(c3ccccc3)c3[nH]c4ccccc4c3C[C@H]2C1=O", "note": "(stereo not given in full)", "Potency": "inconclusive [inhibitor, partial curve]"}
{"smiles": "CC1CCCCC1NC(=O)CN1CCN(S(=O)(=O)c2ccc(Br)s2)CC1", "note": "(stereo not given)", "activity change, negative = growth inhibition": "inactive: -28.9%"}
{"smiles": "Cc1ccccc1-c1nc(CS(=O)(=O)CC(=O)NCc2cccc(Cl)c2)c(C)o1", "Potency": "inconclusive [inhibitor, single point]"}
{"smiles": "COc1ccc(C(=O)COC(=O)C(C)N2C(=O)C3C4CCC(C4)C3C2=O)cc1", "note": "(stereo not given)", "activity change, negative = growth inhibition": "inactive: -15.4%"}
{"smiles": "Cc1nc(NCc2ccccc2)sc1C(=O)Nc1ccccc1", "Potency": "inconclusive [inhibitor, partial curve]"}
{"smiles": "COc1nc(OCC#N)nc(N2CCCCC2)n1", "activity change, negative = growth inhibition": "inactive: -0.306%"}
{"smiles": "CCc1ccc(-c2nc(C(N)=O)c3[nH]c(=O)n(-c4ccccc4OC)c3n2)cc1", "Potency": "active: 2.59 µM"}
{"smiles": "CCNC(=S)N(CCc1c(C)[nH]c2ccc(C)cc12)Cc1cccs1", "Potency": "inconclusive [inhibitor, single point]"}
{"smiles": "Cc1nn(-c2ccccc2)c(C)c1C(=O)OC(C)C(=O)NC1CCCCC1C", "note": "(stereo not given)", "Potency": "active: 20.6 µM"}
{"smiles": "Cc1nn(C(C)C)c(C)c1[C@@H]1C[C@H]2CN(Cc3cccc(Cl)c3)C(=O)[C@]23CCCN13", "Potency": "inconclusive [inhibitor, partial curve]"}
{"smiles": "Cc1ccc(-c2nc(SCC(=O)NCC3CCCO3)c(-c3ccccc3)[nH]2)cc1", "note": "(stereo not given)", "Potency": "inconclusive [inhibitor, single point]"}
{"smiles": "CCN(Cc1cnn(C)c1)C(=O)c1ccc2nc(Cc3cccc(Cl)c3)oc2c1", "Potency": "active: 23.1 µM"}
{"smiles": "CN(C)c1ccc(N/C=C/C(=O)c2ccccc2)cc1", "Potency": "active: 11.2 µM"}
{"smiles": "CCOC(=O)Cn1c(S(=O)(=O)Cc2ccccc2)nc2ccccc21", "Potency": "inconclusive [inhibitor, full curve]"}
{"smiles": "CC(C)Cn1c2c(c(O)c(C(=O)Nn3c(Cc4ccccc4)nc4ccccc4c3=O)c1=O)CCCC2", "Potency": "active: 3.66 µM"}
{"smiles": "CCOC(=O)C1=CCN(S(=O)(=O)c2ccccc2Br)C1c1cccc(Cl)c1", "note": "(stereo not given)", "Potency": "inconclusive [inhibitor, single point]"}
{"smiles": "CCOc1ccc(CCN2C(=O)C(=O)N([C@@H](Cc3ccccc3)CN3CCC[C@H]3CN3C(=O)C(=O)NC[C@@H]3Cc3ccc(O)cc3)C[C@@H]2CC(C)C)cc1", "Potency": "inconclusive [inhibitor, single point]"}
{"smiles": "Cc1cc(C(=O)NCCN2Cc3ccccc3OC(c3ccccc3F)C2)no1", "note": "(stereo not given)", "activity change, negative = growth inhibition": "inactive: -9.97%"}
{"smiles": "Cc1ccc2c(=O)c(C(=O)c3cccc(Cl)c3)cn(CC(=O)NCc3ccc(F)cc3)c2n1", "Potency": "inconclusive [inhibitor, single point]"}
{"smiles": "CCCCCN(C(=O)CCC(=O)OCC(=O)N1CCCCC1)c1c(N)n(CCCC)c(=O)[nH]c1=O", "activity change, negative = growth inhibition": "inactive: -3.68%"}
{"smiles": "Cc1ccc(S(=O)(=O)N2CCCC2)cc1C(=O)NC1CCCCC1", "Potency": "inconclusive [inhibitor, single point]"}
{"smiles": "C=Cc1ccc(CN2C(=O)N(c3cccc(Cl)c3)S(=O)(=O)c3ccccc32)cc1", "Potency": "inconclusive [inhibitor, partial curve, poor fit]"}
{"smiles": "COc1ccc(NC(=O)C(OC(=O)c2ccc([N+](=O)[O-])o2)c2ccccc2)cc1Cl", "note": "(stereo not given)", "Potency": "inconclusive [inhibitor, partial curve, poor fit]"}
{"smiles": "CC(C)c1ccc(C(=O)NCCCc2ccccc2)cc1", "activity change, negative = growth inhibition": "inactive: -16.9%"}
{"smiles": "COc1ccc(C2CC(=O)C(C=NCCN3CCN(C(=S)Nc4ccccc4)CC3)=C(O)C2)cc1OC", "note": "(stereo not given)", "activity change, negative = growth inhibition": "inactive: -0.465%"}
{"smiles": "COc1ccc(C(=O)n2nc(-c3ccco3)nc2NCc2cccs2)cc1", "Potency": "inconclusive [inhibitor, single point]"}
{"smiles": "COc1ccc(-c2nc(C(=O)NCC3CCCO3)cc3c2[nH]c2ccccc23)cc1", "note": "(stereo not given)", "Potency": "active: 2.06 µM"}
{"smiles": "COc1ccc([N+](=O)[O-])cc1C(=O)Nc1ccc(Cc2ccncc2)cc1", "Potency": "inconclusive [inhibitor, partial curve]"}
{"smiles": "COc1cc(C)c2c(=O)cc(-c3ccccc3)oc2c1", "Potency": "inconclusive [inhibitor, single point]"}
{"smiles": "COc1ccccc1-c1cc(C(=O)NC2CCN(C)CC2)c2ccc(Cl)c(C)c2n1", "Potency": "active: 20.6 µM"}
{"smiles": "Cc1cccc(NC(=O)c2ccc(COc3ccccc3[N+](=O)[O-])o2)n1", "Potency": "inconclusive [inhibitor, full curve, poor fit]"}
{"smiles": "O=C(NCCc1ccccn1)c1cc(-c2cccc3ccccc23)nc2ccccc12", "Potency": "inconclusive [inhibitor, single point]"}
{"smiles": "O=C(NCCS(=O)(=O)N1CCN(c2cccc(Cl)c2)CC1)c1ccco1", "activity change, negative = growth inhibition": "inconclusive: -35% [inhibitor]"}
{"smiles": "Cn1c(N=Nc2ccccc2)nc2ccccc21", "Potency": "active: 7.31 µM"}
{"smiles": "CCCCN1CCCc2cc(CN(CCCN3CCOCC3)C(=O)Nc3ccc(OCC)cc3)ccc21", "Potency": "active: 18.4 µM"}
{"smiles": "Nc1cccc2nsnc12", "activity change, negative = growth inhibition": "inconclusive: -32.4% [inhibitor]"}
{"smiles": "O=C1NC[C@@H](CCCCN2C[C@H](Cc3ccccc3)N(CC3CCCCC3)C(=O)C2=O)N(CCc2ccc(O)cc2)C1=O", "activity change, negative = growth inhibition": "inactive: -12.9%"}
{"smiles": "Clc1ccc(C(c2nnnn2C2CCCC2)N2CCSCC2)cc1", "note": "(stereo not given)", "activity change, negative = growth inhibition": "inactive: -16.9%"}
{"smiles": "CCOC(=O)C1(Cc2ccccc2)CCCN(Cc2ccc(OCC)c(CO)c2)C1", "note": "(stereo not given)", "Potency": "inconclusive [inhibitor, single point]"}
{"smiles": "O=C(N/N=C/C1CC2C=CC1C2)c1ccccc1O", "note": "(stereo not given)", "activity change, negative = growth inhibition": "inactive: -4.26%"}
{"smiles": "Cc1ccc(C(=O)N/N=C\\c2cccc(OC(=O)c3cccc(F)c3)c2)cn1", "Potency": "inconclusive [inhibitor, partial curve]"}
{"smiles": "O=C1C=CCC(/C=C/c2ccccc2)O1", "note": "(stereo not given)", "Potency": "active: 3.66 µM"}
{"smiles": "CC1CN(c2nc3c(c(=O)n(Cc4ccc(Cl)c(Cl)c4)c(=O)n3C)n2C)CC(C)O1", "note": "(stereo not given)", "Potency": "inconclusive [inhibitor, single point]"}
{"smiles": "CCc1ccc(C(=O)c2cnc3ccc(OC)cc3c2N2CCN(CC)CC2)cc1", "Potency": "inconclusive [inhibitor, single point]"}
{"smiles": "CC(C)(C)c1ccc(C(=O)N2CCC(C(=O)c3ccccc3)CC2)cc1", "Potency": "active: 20.6 µM"}
{"smiles": "CC1CCCN(CCCOc2ccc(Br)cc2Cl)C1", "note": "(stereo not given)", "Potency": "inconclusive [inhibitor, single point]"}
{"smiles": "CCCn1nc2cc(C(=O)NCc3ccc(C)cc3)ccc2c1OC", "activity change, negative = growth inhibition": "inactive: -26.6%"}
{"smiles": "O=C(NCCc1c[nH]c2ccccc12)c1ccc([N+](=O)[O-])o1", "Potency": "active: 23.1 µM"}
{"smiles": "CN(C)c1ccc(C=Cc2ccnc3ccccc23)cc1N", "Potency": "active: 10.3 µM"}
{"smiles": "O=C(Nc1nc2ccccc2n1Cc1ccc(Cl)cc1)c1ccco1", "activity change, negative = growth inhibition": "inactive: -27.4%"}
{"smiles": "CCN1C(=O)[C@H]2[C@@H](c3ccc(OC)cc3)N[C@]3(CCCN(Cc4ccc(F)cc4)C3=O)[C@H]2C1=O", "Potency": "inconclusive [inhibitor, single point]"}
{"smiles": "CC(C)(C)NC(=O)N1CCn2cccc2C1c1ccccc1F", "note": "(stereo not given)", "Potency": "inconclusive [inhibitor, single point]"}
{"smiles": "CCc1ccc(-c2nc(CS(=O)CC(=O)NCCN3CCCCCC3)c(C)o2)cc1", "note": "(stereo not given)", "Potency": "inconclusive [inhibitor, single point]"}
{"smiles": "O=c1[nH]c(CSc2nnnn2-c2ccccc2)nc2ccccc12", "Potency": "inconclusive [inhibitor, partial curve]"}
{"smiles": "COc1nccnc1NS(=O)(=O)c1ccc(N=Cc2c(C)[nH]n(-c3ccccc3)c2=O)cc1", "Potency": "inconclusive [inhibitor, single point]"}
{"smiles": "CC1(C(=O)Nc2cccc3ccccc23)CCN1C(=O)C1(c2ccccc2)CCCC1", "note": "(stereo not given)", "Potency": "active: 18.4 µM"}
{"smiles": "COc1cc(OC)cc(-c2ncc3ccccn23)c1", "Potency": "inconclusive [inhibitor, partial curve]"}
{"smiles": "CCN(C(=O)c1cc2c(s1)-c1ccccc1OC2)c1cc(Cl)ccc1OC", "Potency": "active: 10.3 µM"}
